Data taken from the supplement of paper PMC11022549.
MIC (lowest dose with no growth) of environmental A. fumigatus isolates, CLSI broth microdilution in RPMI 1640, up to 16 µg/mL, 48 h at 37 °C, mean of two or three runs; higher = less susceptible. No active / inactive call per row; the paper counts tebuconazole above 3, itraconazole and voriconazole above 2 and posaconazole above 0.25 µg/mL as resistant. The source writes 17 for growth at the top dose; shown as '>' 16, and '>=' 16 where runs were 16 and above. cyp51A changes are as printed. Isolates are numbered anew.

Tests used:
Test in all cases: CLSI broth microdilution in RPMI 1640, up to 16 µg/mL, 48 h at 37 °C; full growth inhibition.
posaconazole = compound: CC[C@@H]([C@H](C)O)n1ncn(-c2ccc(N3CCN(c4ccc(OC[C@@H]5CO[C@@](Cn6cncn6)(c6ccc(F)cc6F)C5)cc4)CC3)cc2)c1=O [posaconazole]
itraconazole = compound: CCC(C)n1ncn(-c2ccc(N3CCN(c4ccc(OCC5COC(Cn6cncn6)(c6ccc(Cl)cc6Cl)O5)cc4)CC3)cc2)c1=O [itraconazole]
tebuconazole = compound: CC(C)(C)C(O)(CCc1ccc(Cl)cc1)Cn1cncn1 [tebuconazole]
voriconazole = compound: C[C@@H](c1ncncc1F)[C@](O)(Cn1cncn1)c1ccc(F)cc1F [voriconazole]

Row | Test System | MIC (posaconazole) | MIC (itraconazole) | MIC (tebuconazole) | MIC (voriconazole)
1 | Aspergillus fumigatus isolate 41 (cyp51A: TR34/Y46F/L98H/V172M/T248N/E255D/K427E) | 1 µg/mL | ≥ 16 µg/mL | ≥ 16 µg/mL | 4 µg/mL
2 | Aspergillus fumigatus isolate 97 (cyp51A: Y46F/V172M/T248N/E255D/K427E) | 1 µg/mL | 3 µg/mL | 8 µg/mL | 2 µg/mL
3 | Aspergillus fumigatus isolate 63 (cyp51A: Y46F/V172M/T248N/E255D/K427E) | 0.5 µg/mL | 1.5 µg/mL | 6 µg/mL | 1 µg/mL
4 | Aspergillus fumigatus isolate 36 (cyp51A: Y46F/V172M/T248N/E255D/K427E) | 0.5 µg/mL | 1.5 µg/mL | 2 µg/mL | 0.5 µg/mL
5 | Aspergillus fumigatus isolate 67 (cyp51A: TR46/Y46F/Y121F/V172M/T248N/E255D/T289A/K427E) | 1 µg/mL | 3 µg/mL | > 16 µg/mL | > 16 µg/mL
6 | Aspergillus fumigatus isolate 94 (cyp51A: Y46F/V172M/T248N/E255D/K427E) | 0.5 µg/mL | 2 µg/mL | 4 µg/mL | 1 µg/mL
7 | Aspergillus fumigatus isolate 77 (cyp51A: TR34/Y46F/L98H/V172M/T248N/E255D/K427E) | 1 µg/mL | 16 µg/mL | 16 µg/mL | 4 µg/mL
8 | Aspergillus fumigatus isolate 73 (cyp51A: TR46/Y46F/Y121F/V172M/T248N/E255D/T289A/K427E) | 1 µg/mL | 1.5 µg/mL | > 16 µg/mL | > 16 µg/mL
9 | Aspergillus fumigatus isolate 92 (cyp51A: Y46F/V172M/T248N/E255D/K427E/L464I) | 0.75 µg/mL | 1 µg/mL | 4 µg/mL | 1 µg/mL
10 | Aspergillus fumigatus isolate 44 (cyp51A: T248N/E255D) | 0.5 µg/mL | 2 µg/mL | 3 µg/mL | 0.75 µg/mL
11 | Aspergillus fumigatus isolate 52 (cyp51A: TR46/Y46F/Y121F/V172M/T248N/E255D/T289A/K427E) | 1 µg/mL | 1.5 µg/mL | > 16 µg/mL | > 16 µg/mL
12 | Aspergillus fumigatus isolate 14 (cyp51A: TR34/Y46F/L98H/V172M/T248N/E255D/K427E) | 1 µg/mL | 16 µg/mL | > 16 µg/mL | 4 µg/mL
13 | Aspergillus fumigatus isolate 87 (cyp51A: T248N/E255D/K427E) | 0.5 µg/mL | 1 µg/mL | 2 µg/mL | 0.5 µg/mL
14 | Aspergillus fumigatus isolate 12 (cyp51A: Y46F/V172M/T248N/E255D/K427E) | 0.5 µg/mL | 1.5 µg/mL | 4 µg/mL | 1 µg/mL
15 | Aspergillus fumigatus isolate 25 (cyp51A: TR34/Y46F/L98H/V172M/T248N/E255D/K427E) | 1 µg/mL | > 16 µg/mL | ≥ 16 µg/mL | 4 µg/mL
16 | Aspergillus fumigatus isolate 98 (cyp51A: Y46F/V172M/T248N/E255D/K427E) | 0.75 µg/mL | 3 µg/mL | 6 µg/mL | 1.5 µg/mL
17 | Aspergillus fumigatus isolate 49 (cyp51A: Y46F/V172M/T248N/E255D/K427E) | 0.5 µg/mL | 3 µg/mL | 6 µg/mL | 1 µg/mL
18 | Aspergillus fumigatus isolate 84 (cyp51A: WT) | 0.5 µg/mL | 2 µg/mL | 4 µg/mL | 1 µg/mL
19 | Aspergillus fumigatus isolate 61 (cyp51A: Y46F/V172M/I242V/T248N/E255D/K427E) | 1 µg/mL | 2 µg/mL | 4 µg/mL | 1 µg/mL
20 | Aspergillus fumigatus isolate 40 (cyp51A: TR46/Y46F/Y121F/V172M/T248N/E255D/T289A/K427E) | 0.5 µg/mL | 1 µg/mL | 16 µg/mL | > 16 µg/mL
21 | Aspergillus fumigatus isolate 72 (cyp51A: TR34/Y46F/L98H/V172M/T248N/E255D/K427E) | 1 µg/mL | > 16 µg/mL | > 16 µg/mL | 4 µg/mL
22 | Aspergillus fumigatus isolate 18 (cyp51A: TR46/Y46F/Y121F/V172M/T248N/E255D/T289A/K427E) | 0.5 µg/mL | 2 µg/mL | > 16 µg/mL | > 16 µg/mL
23 | Aspergillus fumigatus isolate 53 (cyp51A: Y46F/V172M/T248N/E255D/K427E/L464I) | 0.75 µg/mL | 1.5 µg/mL | 4 µg/mL | 0.5 µg/mL

Row | Test System | MIC (posaconazole) | MIC (itraconazole) | MIC (tebuconazole) | MIC (voriconazole)
24 | Aspergillus fumigatus isolate 28 (cyp51A: Y46F/V172M/T248N/E255D/K427E) | 0.5 µg/mL | 2 µg/mL | 4 µg/mL | 0.75 µg/mL
25 | Aspergillus fumigatus isolate 79 (cyp51A: TR46/Y46F/Y121F/V172M/T248N/E255D/T289A/K427E) | 1 µg/mL | 2 µg/mL | > 16 µg/mL | > 16 µg/mL
26 | Aspergillus fumigatus isolate 39 (cyp51A: TR34/Y46F/L98H/V172M/T248N/E255D/K427E) | 0.75 µg/mL | 8 µg/mL | 12 µg/mL | 3 µg/mL
27 | Aspergillus fumigatus isolate 17 (cyp51A: WT) | 0.5 µg/mL | 2 µg/mL | 2 µg/mL | 0.375 µg/mL
28 | Aspergillus fumigatus isolate 46 (cyp51A: TR46/Y46F/Y121F/V172M/T248N/E255D/T289A/K427E) | 1 µg/mL | 1.5 µg/mL | ≥ 16 µg/mL | ≥ 16 µg/mL
29 | Aspergillus fumigatus isolate 10 (cyp51A: Y46F/V172M/T248N/E255D/K427E) | 0.375 µg/mL | 1.5 µg/mL | 2 µg/mL | 0.375 µg/mL
30 | Aspergillus fumigatus isolate 31 (cyp51A: T248N/E255D) | 0.5 µg/mL | 1.5 µg/mL | 2 µg/mL | 0.5 µg/mL
31 | Aspergillus fumigatus isolate 45 (cyp51A: TR34/Y46F/L98H/V172M/T248N/E255D/K427E) | 1.5 µg/mL | > 16 µg/mL | > 16 µg/mL | 4 µg/mL
32 | Aspergillus fumigatus isolate 4 (cyp51A: T248N/E255D) | 1 µg/mL | 2 µg/mL | 8 µg/mL | 2 µg/mL
33 | Aspergillus fumigatus isolate 88 (cyp51A: T248N/E255D) | 0.5 µg/mL | 1.5 µg/mL | 3 µg/mL | 0.5 µg/mL
34 | Aspergillus fumigatus isolate 99 (cyp51A: T248N/E255D) | 0.5 µg/mL | 1 µg/mL | 1.5 µg/mL | 0.5 µg/mL
35 | Aspergillus fumigatus isolate 38 (cyp51A: TR34/Y46F/L98H/V172M/T248N/E255D/K427E) | 1 µg/mL | ≥ 16 µg/mL | ≥ 16 µg/mL | 3 µg/mL
36 | Aspergillus fumigatus isolate 90 (cyp51A: WT) | 0.75 µg/mL | 2 µg/mL | 8 µg/mL | 1 µg/mL
37 | Aspergillus fumigatus isolate 66 (cyp51A: Y46F/V172M/T248N/E255D/K427E) | 0.5 µg/mL | 1.5 µg/mL | 2 µg/mL | 0.5 µg/mL
38 | Aspergillus fumigatus isolate 91 (cyp51A: Y46F/V172M/T248N/E255D/K427E) | 0.75 µg/mL | 2 µg/mL | 6 µg/mL | 0.75 µg/mL
39 | Aspergillus fumigatus isolate 83 (cyp51A: T248N/E255D) | 0.5 µg/mL | 1 µg/mL | 2 µg/mL | 0.5 µg/mL
40 | Aspergillus fumigatus isolate 96 (cyp51A: WT) | 0.5 µg/mL | 1 µg/mL | 2 µg/mL | 0.5 µg/mL
41 | Aspergillus fumigatus isolate 74 (cyp51A: TR34/Y46F/L98H/V172M/T248N/E255D/K427E) | 1 µg/mL | ≥ 16 µg/mL | ≥ 16 µg/mL | 3 µg/mL
42 | Aspergillus fumigatus isolate 89 (cyp51A: T248N/E255D) | 0.5 µg/mL | 1 µg/mL | 1.5 µg/mL | 0.5 µg/mL
43 | Aspergillus fumigatus isolate 5 (cyp51A: TR46/Y46F/Y121F/V172M/T248N/E255D/T289A/K427E) | 0.83 µg/mL | 1.66 µg/mL | 13.3 µg/mL | ≥ 16 µg/mL
44 | Aspergillus fumigatus isolate 70 (cyp51A: TR34/Y46F/L98H/V172M/T248N/E255D/K427E) | 1 µg/mL | ≥ 16 µg/mL | ≥ 16 µg/mL | 4 µg/mL
45 | Aspergillus fumigatus isolate 43 (cyp51A: T248N/E255D) | 0.5 µg/mL | 1.5 µg/mL | 2 µg/mL | 0.375 µg/mL
46 | Aspergillus fumigatus isolate 62 (cyp51A: Y46F/V172M/T248N/E255D/K427E) | 0.5 µg/mL | 1 µg/mL | 1 µg/mL | 0.375 µg/mL
